# The full ranking holds about 110,000 compounds; the median of “z-score” is about -0.1, and the highest 2% start at about 2. The list shows a part of the results. Activity calls are given as the source filed them.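 The calls were made as follows: active = z-score in the third read window above 3 or below -3; inactive = the rest.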
# Target: Metabotropic glutamate receptor 8 (Rattus norvegicus) (UniProt P70579)
# Assay: rat mGluR8 modulators via GIRK flux, primary screen, cell-based, thallium flux, HTS (AID 488969)
# Conditions: HEK293 rat mGluR8, GIRK (G protein-gated inwardly rectifying potassium channel) thallium flux, FluoZin2; at 10 µM; stronger effect = higher value; submaximal glutamate (EC20) added with thallium
# Chain of UniProt P70579 (P70579 whole entry, looked up): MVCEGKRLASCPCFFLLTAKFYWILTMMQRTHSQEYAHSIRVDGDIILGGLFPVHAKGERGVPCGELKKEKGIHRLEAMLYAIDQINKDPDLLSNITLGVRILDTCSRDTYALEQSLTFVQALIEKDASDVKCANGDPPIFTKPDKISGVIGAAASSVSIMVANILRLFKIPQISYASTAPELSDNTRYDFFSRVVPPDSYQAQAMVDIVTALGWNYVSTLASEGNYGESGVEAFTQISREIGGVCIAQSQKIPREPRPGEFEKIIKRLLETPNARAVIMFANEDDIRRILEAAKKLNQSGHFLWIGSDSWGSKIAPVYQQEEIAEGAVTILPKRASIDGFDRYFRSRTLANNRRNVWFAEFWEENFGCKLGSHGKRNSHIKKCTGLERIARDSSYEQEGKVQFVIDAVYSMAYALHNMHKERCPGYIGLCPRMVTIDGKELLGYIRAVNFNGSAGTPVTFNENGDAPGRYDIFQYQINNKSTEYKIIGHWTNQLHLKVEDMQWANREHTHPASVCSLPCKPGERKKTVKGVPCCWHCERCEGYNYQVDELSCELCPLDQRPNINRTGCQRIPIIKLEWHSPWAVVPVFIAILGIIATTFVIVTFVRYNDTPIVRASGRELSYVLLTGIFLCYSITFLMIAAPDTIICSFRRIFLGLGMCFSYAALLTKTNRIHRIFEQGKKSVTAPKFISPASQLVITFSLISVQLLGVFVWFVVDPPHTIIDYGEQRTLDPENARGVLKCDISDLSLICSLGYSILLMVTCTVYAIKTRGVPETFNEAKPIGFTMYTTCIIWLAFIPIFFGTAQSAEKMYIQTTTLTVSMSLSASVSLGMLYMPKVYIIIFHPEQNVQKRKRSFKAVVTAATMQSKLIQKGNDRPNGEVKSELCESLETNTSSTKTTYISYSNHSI
row,Structure (SMILES),z-score
1,Nc1nc(-c2ccc(Br)s2)c(Br)s1,0.515
2,O=C(NC(=S)NCc1ccc(-c2nc3ccccc3s2)cc1)c1ccco1,2.52
3,C/C=C/C(=O)Nc1nnc(C(C)C)s1,0.0319
4,Cc1ccc(-n2c(SCC(N)=O)nnc2-c2ccc(S(=O)(=O)N3CCCCC3)cc2)c(C)c1,-0.621
5,CCOC(=O)N1CCC(NC(=O)c2cc3c(-c4ccccc4F)nn(C)c3s2)CC1,-0.527
6,COc1ccc(-c2c3c(nc4sc(C(=O)Nc5ccccc5)c(N)c24)CCC3)cc1,-0.28
7,C=CCn1c(CSCc2ccc(C)cc2)nnc1SCC(=O)NCc1ccccc1,-0.519
8,CC(=O)NCCCc1nc2ccccc2n1Cc1ccc(C)cc1,-0.0965
9,Cn1cccc1/C=N/NC(=O)c1ccn[nH]1,-0.0257
10,CCOC(=O)c1ccc(N2C(=O)CC(N3CCN(C/C=C/c4ccccc4)CC3)C2=O)cc1 (centres undefined),0.337
11,O=C(Cn1cc(C(=O)C2CC2)c2ccccc21)NCc1ccccc1,-1.52
12,O=C1N(Nc2ccccc2)C(c2ccc(Br)cc2)C12CCCCC2 (centres undefined),-0.026
13,Cc1ccc(C2CC(C(F)F)n3ncc(C(=O)Nc4c(C)nn(Cc5c(F)cccc5Cl)c4C)c3N2)cc1 (centres undefined),0.125
14,O=C(CN(c1cccc([N+](=O)[O-])c1)S(=O)(=O)c1ccccc1)N(Cc1ccccc1)Cc1ccccc1,-0.215
15,CCC(C)NC(=O)CCCc1ccccc1 (centres undefined),-0.125
16,COc1ccc2c(c1)C(C1C(=O)CCCC1=O)c1ccccc1O2 (centres undefined),-0.324
17,CCN(CC)S(=O)(=O)c1cc(NS(=O)(=O)c2ccccc2)ccc1C,0.181
18,CC(=O)Nc1nc(N)n(-c2ccccc2)n1,-1.76
19,O=C(Nc1ccc(F)cc1)NC1CCN(Cc2nnnn2Cc2ccco2)CC1,-0.181
20,O=C1C(=C2CCCCC2)SC(=S)N1Cc1ccco1,0.0279
21,CN(C)c1ccc(C(=O)Nc2ccc(S(=O)(=O)NC3=NCCCCC3)cc2)cc1,0.279
22,Cc1cc(N2CCN(c3cccc(C)c3C)CC2)nc(-c2ccccc2)n1,-0.272

row,Structure (SMILES),z-score
1,COc1cccc(Cn2nnc3c(=O)[nH]c(C4CCCN(C(=O)c5ccccc5Cl)C4)nc32)c1 (centres undefined),-2.56
2,Cc1cc(N/C(=N\S(=O)(=O)c2ccc(F)cc2F)c2ccccc2)no1,0.0702
3,Cc1cccc(N2CCN(C3=NC(=O)C(Cc4ccccc4)S3)CC2)c1 (centres undefined),-0.299
4,CC(C)C[C@H](NC(=O)NC(C)C)C(=O)O,0.617
5,CC1CC(C)CN(C(=O)Cn2c(-c3nonc3N)nc3ccccc32)C1 (centres undefined),0.882
6,Cc1ccccc1-c1nnc(SCC(=O)Nc2ccc(Cl)cc2)n1N,0.6
7,O=C(CCCCCN1C(=O)CCC1=O)Nc1ncn[nH]1,0.282
8,CCOc1ccc(S(=O)(=O)n2cc(-c3ccccc3)c(N)n2)cc1,0.107
9,O=S(=O)(C=C(c1ccccc1)c1ccccc1)c1ccccc1,-0.199
10,CS(=O)(=O)N(Cc1ccc(F)cc1)Cc1nc2ccccc2c(=O)[nH]1,-0.126
11,CCN(CC)CC(=O)NCc1cc(-c2ccc(OC)cc2)no1,0.153
12,CCCN(CCC)C(=O)CC(c1ccccc1)c1cc(C)ccc1O (centres undefined),-0.278
13,Cc1cc(Oc2ccccc2)nc(NCc2ccccc2)n1,-0.922
14,CCn1c(=O)cc(SCC(=O)Nc2ccc(OC)c(OC)c2)c2ccccc21,-0.229
15,CCN1C=CC2=C(C#N)C(N)C(C#N)(C#N)C(c3ccccc3C(F)(F)F)C2C1 (centres undefined),-2.55
16,CC(Oc1ccc(Cl)cc1Cl)C(=O)NN=C1CCN(C)CC1 (centres undefined),-0.0448
17,Cc1ccc(C(=O)NC2CC3CCC(C2)N3Cc2ccco2)cc1 (centres undefined),0.554
18,CCC(C)(C)n1nnnc1C(c1ccc(C)cc1)N1CCN(C(=O)c2ccco2)CC1 (centres undefined),0.975
19,Cn1nc(C(F)(F)F)c(C#N)c1N1CCN(c2ccc(F)cc2)CC1,-2.54
20,CCSc1nnc(-c2cccs2)o1,0.198
21,CC(C)C1Cc2c(sc3[nH]c(=S)n(Cc4ccccc4)c(=O)c23)CO1 (centres undefined),active: 5.29
22,CCCC1CCC(=C(C#N)C(N)=O)CC1 (centres undefined),0.283

row,Structure (SMILES),z-score
1,Cc1ccc(C(=O)NNC(=O)C2CCN(c3nc(C)cc(C)n3)CC2)cc1,-0.127
2,O=c1cc(CO)oc(CN2CCN(c3ccccc3)CC2)c1O,-0.094
3,CCOC(=O)c1sc2ncn(/N=C/c3cccnc3)c(=O)c2c1C,-0.233
4,O=C(NCc1nnc2c3ccccc3c(-c3ccccc3)nn12)c1ccccc1Cl,-0.276
5,O=C1CC(N(O)C2CC(=O)N(Cc3ccccc3)C2=O)C(=O)N1Cc1ccccc1 (centres undefined),-0.144
6,C/C(=N\NC(=O)c1ccc(CSc2nncn2C)cc1)c1ccc(Cl)cc1,-0.0615
7,COc1ccc(C2N(c3cc(C)on3)C(=O)C3CCCN32)cc1OC (centres undefined),-0.238
8,Cc1ccc(SCCNC(=O)/C=C/c2cccc([N+](=O)[O-])c2)cc1,-0.493
9,CCCS(=O)(=O)N1CCCC(C(=O)NCc2ccc3c(c2)OCO3)C1 (centres undefined),-0.106
10,CC1Cc2ccccc2N1C(=O)CCn1c(=O)oc2ccccc21 (centres undefined),-0.561
11,N#C/C(=N/Nc1ccccc1F)C(=N)N1CCOCC1,-0.131
12,O=C(CN1CCN(C/C=C/c2ccccc2)CC1)Nc1cc([N+](=O)[O-])ccc1Cl,-0.0486
13,C(=C\c1ccccc1)/C=N/N1CCN(c2ccccn2)CC1,-0.106
14,CCc1nnc(NC(=O)CSc2nnc(-c3ccc(S(=O)(=O)N4CCCC4)cc3)n2CC)s1,-0.659
15,CCN(CC)C(=O)c1oc2ccc(S(=O)(=O)N3CCCCCC3)cc2c1C,-0.0118
16,Cc1cc(N/N=C/c2ccccc2Br)nc2ccccc12,-0.682
17,COc1ccccc1N(CC(=O)NCC1CCCO1)C(=O)CCC(=O)Nc1nccs1 (centres undefined),-0.532
18,CNC(=O)/C(=C/c1ccc2c(c1)OCO2)NC(=O)c1ccc(Br)cc1,0.116
19,CCC(C)(C)n1nnnc1CN1CCN(C(c2ccccc2)c2ccccc2)CC1,0.0727
20,CNC(=S)N=Nc1c(O)[nH]c2ccc(C(C)C)cc12,active: 5.56
21,Cn1c(Cc2c[nH]c3ccccc23)n[nH]c1=S,-0.255
22,Fc1ccc(CNn2cnnc2SCc2ccc(F)cc2)cc1,-0.127

row,Structure (SMILES),z-score
1,COc1cccc(-c2csc(N3CCN(CC(=O)NNC(=O)c4ccc(Br)cc4)CC3)n2)c1,0.0337
2,COc1ccc2nc(NC(=O)CN(c3ccc(C)cc3)S(=O)(=O)c3c(C)nn(C)c3C)sc2c1,0.03
3,CN(C)N=C1c2cc(S(=O)(=O)N3CCOCC3)ccc2-c2ccc(S(=O)(=O)N3CCOCC3)cc21,-0.229
4,NS(=O)(=O)c1ccc(NC(=O)NC2CCCCC2)cc1,0.541
5,O=C(Nc1ccccc1-c1ccccc1)c1ccc(NC(=O)c2ccco2)cc1,-0.624
6,O=C(N1CCN(c2cccc(Cl)c2)CC1)C1(c2cccs2)CCOCC1,-0.822
7,CC(C)(C)C(=O)COC(=O)c1ccccc1O,-0.0524
8,Cc1ccc(NC(=O)Cn2nnc(C(=O)NCc3ccco3)c2N)cc1,0.0407
9,CCC(=O)Nc1nnc(SCCOC)s1,0.214
10,CC(=O)c1ccc(NC(=O)c2cn(-c3ccccc3)nc2-c2ccncc2)cc1,-0.0209
11,COc1ccccc1-c1nnc(Sc2nc([N+](=O)[O-])nn2C)o1,0.987
12,CCOC(=O)c1nn(-c2ccccc2)c(-c2ccccc2)c1C(=O)c1ccccc1,-0.133
13,Cc1nn(Cc2ccccc2)c2sc(C(=O)N3CCN(Cc4ccc5c(c4)OCO5)CC3)cc12,-0.287
14,COC(=O)c1c(C(=O)OC)c2cccc3cc(-c4ccccc4)c4ccc1c4n32,-0.299
15,COc1cnc(N(C)C)nc1Sc1ccc(Cl)cc1,-0.095
16,O=C(CCc1ccccc1)NNC(=O)C12CC3CC(CC(C3)C1)C2,0.672
17,O=C(Cn1nc(C(F)F)cc1C(F)F)NNC(=S)Nc1ccc(Cl)cc1,-0.189
18,Nc1ncnc2c1CCC2,0.328
19,Cc1csc(=Nc2ccccc2)n1CCO,-0.139
20,O=C(CN(C(=O)CNC(=O)c1cccs1)c1ccc2c(c1)OCCO2)NC1CCCC1,0.818
21,O=C(C1CCN(S(=O)(=O)N2CCC3(CC2)OCCO3)CC1)N1CCOCC1,-0.0498
22,CC(C)C(C(=O)Nc1cccnc1)N1C(=O)c2ccccc2C1=O (centres undefined),0.0029

row,Structure (SMILES),z-score
1,CCN1C(=O)c2cccc3c(S(=O)(=O)NCCc4c[nH]c5ccccc45)ccc1c23,0.837
2,Cn1c(=O)c2c(SCc3c(F)cccc3Cl)nc(CC(C)(C)C)nc2n(C)c1=O,0.37
3,O=C(NC(=S)Nc1nc(-c2ccc(Br)cc2)cs1)c1cccnc1,0.00657
4,O=[N+]([O-])c1ccc(/C=N/N/C(=N/c2ccccn2)c2ccccn2)cc1,0.00507
5,CSc1nc(N(C)NC(=O)c2ccc(Cl)cc2)c2ccccc2n1,-0.0629
6,CCCNC(=O)Cn1cccc1C(=O)c1ccccc1,-0.232
7,O=C1c2oc3ccccc3c(=O)c2C(c2cccc(Br)c2)N1Cc1ccco1 (centres undefined),-0.157
8,Nc1ccc2c(c1)CCC2=O,-0.0288
9,O=C(Cn1cnc2c(nnn2Cc2ccc(Cl)cc2)c1=O)NCc1ccco1,0.0401
10,Cc1cc(C)n(CC2CC(=O)N(c3ccc(C)c(Cl)c3)C2=O)n1 (centres undefined),-0.0305
11,COc1ccc(/C=N/NC(=O)c2nn(-c3ccc(Cl)cc3)c(=O)c3c(N)scc23)cc1,-0.151
12,CCn1cc(C2C3=C(CC(C)(C)CC3=O)N(c3ccccc3)C3=C2C(=O)CC(C)(C)C3)c(C)n1,-0.0273
13,O=C(c1cccc(Cl)c1)c1nn(-c2ccccc2)c(=O)cc1C(F)(F)F,-0.401
14,N#Cc1ccc(NC(=O)CCc2ccc(S(=O)(=O)N3CCOCC3)cc2)cc1,-0.409
15,Cc1cccc(C)c1NC(=O)/C(C#N)=C/c1ccsc1,-0.11
16,CCN1CCN(Cc2c(OC)ccc3ccccc23)CC1,0.735
17,COc1cc(C)c(S(=O)(=O)N2CCOCC2)cc1C(C)C,0.397
18,NC(=O)NC(CC(=O)OCC(=O)NC(=O)NCc1ccco1)c1ccc(Cl)cc1 (centres undefined),-0.0975
19,CN(C)c1ccc(CN2CCCCC2)cc1,-0.0849
20,O=C(CCCN1C(=O)c2cccc3cccc(c23)C1=O)N1CCN(Cc2ccc3c(c2)OCO3)CC1,-0.796
21,CCOC(=O)C1CCCCN1Cc1cccc(OC)c1OC (centres undefined),0.109

# From PubChem BioAssay AID488969 (Vanderbilt High Throughput Screening Facility, 2010)
